Reference: article PMC5892938
This is one part of the list. Construct or isoform of the protein are uncertain.

The sequences below were run against GST-SBP-ILF3 (Homo sapiens) (UniProt Q12906) (assay: targeted RNA Bind-n-Seq). Conditions: RBNS binding buffer: 25 mM Tris pH 7.5, 150 mM KCl, 3 mM MgCl2, 0.1% Tween, 0.5 mg/mL BSA, 1 mM DTT; 27 nM protein, 750 pM RNA pool; temperature not stated; high values mean tight binding; sequences stand for … in GGGUAAAAGCGAGGUGAA…CGGGACAAGUAUUAUGGG.
“GUGUGUGGUGUUGGUGCCUAACACCGCAUA [gtspaired]” showed a binding signal (log2 fold change) of -0.397. “UUUUUUUUUUGAGAUCGGCACGAUCUCCAG [tttttgagapaired]” was tested, and the binding signal (log2 fold change) was 0.165. “GUGGUGUGUGUUGGUCUCUAACACAUACCG [gtspaired]” gave a binding signal (log2 fold change) of -0.951. “UUUUUUUUUUGAGAGUGAAACACUCUUCUA [tttttgagapaired]” showed a binding signal (log2 fold change) of 0.103. For “UUUUUUUUUUGAGAUGGUGGCCAUCUCCUG [tttttgagapaired]”, the binding signal (log2 fold change) was 0.831. “UUUUUUUUUUGAGAACGGUGCGUUCUCCAG [tttttgagapaired]” was tested, and the binding signal (log2 fold change) was 0.294. Sequence “GGUGGUGGUGUUGGAUUCUAACACCGCUAC [gtspaired]” has a binding signal (log2 fold change) of -0.44. Work on “UUUUUUUUUUGAGACCGAACCGGUCUUCUG [tttttgagapaired]” yielded a binding signal (log2 fold change) of 0.214. “UUUUUUUUUUGAGAGGGAAGCCCUUUCCAG [tttttgagapaired]” showed a binding signal (log2 fold change) of 0.22. For “UUUUUUUUUUGAGACGGAAGCCGUUUCCUA [tttttgagapaired]”, the binding signal (log2 fold change) was 0.29. In the case of “GUGUGUUGUGUUGGACUCUAACACAACGCG [gtspaired]”, the binding signal (log2 fold change) is reported as -0.968. “UUUUUUUUUUGAGAAGGUGCCCUUCUCCAG [tttttgagapaired]” was tested, and the binding signal (log2 fold change) was 0.248. “UUUUUUUUUUGAGACCGCAACGGUCUCCAG [tttttgagapaired]” gave a binding signal (log2 fold change) of 0.495. In the case of “GUGUUGUGUGUUGGAGUCUAACACACAGCA [gtspaired]”, the binding signal (log2 fold change) is reported as -0.336. “GUGUGGUGUGUUGGUAUCUAACACAUCACA [gtspaired]” gave a binding signal (log2 fold change) of -0.794. With “UUUUUUUUUUGAGAAGGACUCCUUCUCCAG [tttttgagapaired]” the binding signal (log2 fold change) was -0.146. Sequence “UUUUUUUUUUGAGACGGUGGCCGUCUCCGG [tttttgagapaired]” has a binding signal (log2 fold change) of 0.626. “UUUUUUUUUUGAGACCGUGACGGUCUCCUA [tttttgagapaired]” gave a binding signal (log2 fold change) of 0.469. In the case of “GUGUGUGGUGUUGGUCCCUAACACCGCAUA [gtspaired]”, the binding signal (log2 fold change) is reported as -0.587. “UUUUUUUUUUGAGACGGUGGCCGUCUCCUA [tttttgagapaired]” was tested, and the binding signal (log2 fold change) was 0.736. “GGUGGUUGUGUUGGUGCCUAACACAGCUAC [gtspaired]” gave a binding signal (log2 fold change) of -0.484. “GUGGUUGGUGUUGGCCUCUAACACCGAUCA [gtspaired]” gave a binding signal (log2 fold change) of -0.745. “GGUGUGUGUGUUGGCAUCUAACACACGCGC [gtspaired]” was tested, and the binding signal (log2 fold change) was -0.795. For “UUUUUUUUUUGAGACCGCAUCGGUCUCCGG [tttttgagapaired]”, the binding signal (log2 fold change) was 0.214. “UUUUUUUUUUGAGAUGGAUACCAUUUCCGG [tttttgagapaired]” gave a binding signal (log2 fold change) of 0.327. “UUUUUUUUUUGAGAGCGUAACGUUCUCCAG [tttttgagapaired]” gave a binding signal (log2 fold change) of 0.37. “UUUUUUUUUUGAGACUGCAACAGUCUCCUG [tttttgagapaired]” was tested, and the binding signal (log2 fold change) was 0.413. In the case of “UUUUUUUUUUGAGAGCGGAGCGUUCUCCGG [tttttgagapaired]”, the binding signal (log2 fold change) is reported as 0.401. In the case of “UUUUUUUUUUGAGACUGCUACAGUCUCCUG [tttttgagapaired]”, the binding signal (log2 fold change) is reported as 0.542. In the case of “UUUUUUUUUUGAGAUGGUCCCCAUCUCCGG [tttttgagapaired]”, the binding signal (log2 fold change) is reported as 0.902. For “UUUUUUUUUUGAGACGGAGACCGUCUCCUA [tttttgagapaired]”, the binding signal (log2 fold change) was 0.404. Work on “GUGUGUUGUGUUGGCAUCUAACACAGCGCA [gtspaired]” yielded a binding signal (log2 fold change) of -0.735. Work on “GUGUGGUGUGUUGGACCCUAACACAUCACG [gtspaired]” yielded a binding signal (log2 fold change) of -0.468. “UUUUUUUUUUGAGAAGGGAUCCUUCUCCAG [tttttgagapaired]” was tested, and the binding signal (log2 fold change) was -0.199. “GUGGUUGGUGUUGGAGCCUAACACCAAUCA [gtspaired]” was tested, and the binding signal (log2 fold change) was 0.221. In the case of “UUUUUUUUUUGAGACGGGUGCCGUCUCCAG [tttttgagapaired]”, the binding signal (log2 fold change) is reported as 0.742. “UUUUUUUUUUGAGAUGGAUUCCGUCUCCGG [tttttgagapaired]” gave a binding signal (log2 fold change) of 0.503. For “UUUUUUUUUUGAGACUGACACAGUCUCCUG [tttttgagapaired]”, the binding signal (log2 fold change) was 0.545. For “GGUUGUGGUGUUGGUCCCUAACACCACAGC [gtspaired]”, the binding signal (log2 fold change) was -0.583. For “UUUUUUUUUUGAGAGGGUCCCCCUCUCCAG [tttttgagapaired]”, the binding signal (log2 fold change) was 0.723. Work on “UUUUUUUUUUGAGAGGGAGGCCCUUUCCAG [tttttgagapaired]” yielded a binding signal (log2 fold change) of 0.423. Work on “UUUUUUUUUUGAGAACGUGUCGUUCUCCGG [tttttgagapaired]” yielded a binding signal (log2 fold change) of 0.511. For “UUUUUUUUUUGAGACUGAGACAGUUUCCUA [tttttgagapaired]”, the binding signal (log2 fold change) was 0.512. With “UUUUUUUUUUGAGACGGCCACCGUCUUCUA [tttttgagapaired]” the binding signal (log2 fold change) was 0.756. Work on “GUGUGUGGUGUUGGUCCCUAACACCAUACG [gtspaired]” yielded a binding signal (log2 fold change) of -0.519. Work on “UUUUUUUUUUGAGACCGCGACGGUCUUCUA [tttttgagapaired]” yielded a binding signal (log2 fold change) of 0.369. “UUUUUUUUUUGAGAUGGUGGCUAUCUCCGG [tttttgagapaired]” showed a binding signal (log2 fold change) of 0.914. In the case of “GUUGUGUGUGUUGGCAUCUAACACACACGA [gtspaired]”, the binding signal (log2 fold change) is reported as -0.443. In the case of “GUGGUUGGUGUUGGUCUCUAACACCGACUA [gtspaired]”, the binding signal (log2 fold change) is reported as -0.921. “GUGUGUGGUGUUGGAAUCUAACACCACGCG [gtspaired]” showed a binding signal (log2 fold change) of -0.613. “UUUUUUUUUUGAGAGGGUAUCCCUCUCCAG [tttttgagapaired]” gave a binding signal (log2 fold change) of 0.169. “GUGGUGUGUGUUGGACUCUAACACAUACUA [gtspaired]” showed a binding signal (log2 fold change) of -0.923.
